In PubChem BioAssay AID686971 (National Center for Advancing Translational Sciences (NCATS), 2013):
Hit rate of the full screen: of about 360,000 compounds, about 7,500 (2.1%) were called active. Inconclusive means that the source gave no clear call. Such entries were picked first, then a sample of the others. Calls follow the shape of the dose curve; as a rule, active = well fitted cell-killing curve with a large enough effect; inconclusive = small, poorly fitted or top-dose-only effect, or effect the other way, or another doubt; inactive = no such curve, though single readings can be large or run the other way. Potencies of inconclusive entries are left out as doubtful fits.

test: qHTS for induction of synthetic lethality in tumor cells producing 2HG: qHTS for the HT-1080-IDH1KD cell line; conditions: HT-1080 IDH1 knockdown viability, ATP luminescence, 48 h; activity, negative = toxicity: at 46.1 µM (top of the series) unless noted;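 as to activity, negative = toxicity: 0% = DMSO wells and -100% = cell-free medium wells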
In short: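 In this qHTS, HT-1080 cells depleted of IDH1 are exposed for 48 h at 37 °C to compound titrations. Toxicity is scored from CellTiter-Glo luminescence, with DMSO as full viability and medium alone as none.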
Potency is read from the fitted curve at half-maximal effect; tags tell the direction and shape of the fitted curve.

Row | Structure (SMILES) | Potency | activity, negative = toxicity
1 | CCn1c(SCC(=O)N2CC(C)OC(C)C2)nc2c([nH]c3ccccc32)c1=O (stereo unspecified) | inactive | 
2 | CCCCCCCCN1C(=O)[C@H](CC(=O)NCCCOCCCC)C[C@@]2(C(=O)OC)CCCCC=C12 | inconclusive [cytotoxic, single point] | 
3 | C=CS(=O)(=O)N(Cc1ccccc1Br)[C@H](CO)Cc1ccccc1 | inconclusive [cytotoxic, single point] | 
4 | COc1cccc(C2c3cc4c(cc3OC(N3CCCC3)C2C)OCO4)c1O (stereo unspecified) | inconclusive [cytotoxic, single point] | 
5 | O=C(CN1C(=O)/C(=C\c2cccs2)SC1=S)Nc1cccc(C(=O)O)c1 | inconclusive [cytotoxic, single point] | 
6 | CCCCn1c(CNC(=O)C23CC4CC(CC(C4)C2)C3)nnc1SC(C)CC (stereo unspecified) | inconclusive [cytotoxic, single point] | 
7 | CCN(CC)C(=O)C1=C(C)N(Cc2ccc(C(C)(C)C)cc2)C(=O)C(CC(=O)NCC2CCCCC2)C1 (stereo unspecified) | inconclusive [cytotoxic, single point] | 
8 | Cc1ccc2c(C)c(C)c(=O)n(C)c2c1 | inactive | 
9 | CC1Sc2ccc(S(=O)(=O)N3CCN(c4cccc(Cl)c4)CC3)cc2NC1=O (stereo unspecified) | inconclusive [cytotoxic, single point] | 
10 | O=C(Nc1ccc(F)cc1)c1oc2ccccc2c1NC(=O)C1CCCC1 |  | inconclusive: 17.4%
11 | Cc1onc(-c2ccccc2)c1C(=O)N/N=C(\N)COc1ccc(Cl)cc1 | inconclusive [cytotoxic, single point] | 
12 | CCN(CC)c1ccc(/C=N/Nc2nc(C)cc(C)n2)c(O)c1 | inconclusive [cytotoxic, partial curve] | 
13 | O=C(NCc1ccc2c(c1)OCO2)c1nc(S(=O)(=O)Cc2ccccc2)ncc1Cl | active: 16.4 µM | 
14 | O=C(Nc1cnn(Cc2ccc(F)cc2)c1)c1noc2c1CCCC2 | inconclusive [cytotoxic, full curve] | 
15 | Cc1ccc(NC(=O)c2ccc(Cl)cc2[N+](=O)[O-])nc1 | active: 4.61 µM | 
16 | COc1ccc(/C=C/C(=O)N(C)CC(=O)Nc2cccc(F)c2)cc1S(=O)(=O)N1CCCCC1 | inconclusive [cytotoxic, single point] | 
17 | COCCn1nnnc1CN(CCc1ccccc1)Cc1cc2ccc(C)cc2[nH]c1=O | inactive | 
18 | O=C1N/C(=C/c2ccc(N3CCOCC3)o2)C(=O)N1c1cccc(Cl)c1 | inconclusive [cytotoxic, single point] | 
19 | CCCC(=O)Nc1c2c(nn1-c1ccc(C)cc1C)CSC2 | inconclusive [rising, single point] | 
20 | COc1cc(OC)cc(C(=O)NNC(=O)CNC(=O)c2cccs2)c1 | inactive | 
21 | COc1ccc(C2CC=C(C(C)=O)CN2S(=O)(=O)c2ccc(C)cc2)cc1 (stereo unspecified) | inactive | 
22 | COc1ccc(/C=C(\C#N)C(=O)NCc2ccccc2)cc1 | inactive | 
23 | CCOc1cc(/C=N/NC(=O)c2cc(-c3cccc(OC)c3)nc3ccccc23)ccc1O | inconclusive [cytotoxic, partial curve] | 
24 | Cc1ccccc1OCCCCn1cnc2ccccc21 | inconclusive [cytotoxic, single point] | 

Row | Structure (SMILES) | Potency | activity, negative = toxicity
25 | CC1CCN(CCCNC(=O)c2cc3c(s2)-c2ccccc2OC3)CC1 | inconclusive [cytotoxic, single point] | 
26 | Cc1ccc(/C=N/Nc2cccc3cccnc23)c(O)c1 | inconclusive [cytotoxic, single point] | 
27 | CC(C)N(Cc1nc(-c2ccccc2)no1)C(=O)COc1ccccc1 | inactive | 
28 | CN(C1=C(N2CCCCC2)C(=O)c2ccccc2C1=O)c1ccccc1 | inconclusive [cytotoxic, single point] | 
29 | NC(=O)c1c(NC(=O)c2ccc([N+](=O)[O-])o2)sc2c1CCCC2 | inconclusive [cytotoxic, partial curve] | 
30 | O=C(Nc1ccncc1)c1ccc(Cl)c(S(=O)(=O)N2CCCCC2)c1 | active: 8.2 µM | 
31 | CC(C)OC(=O)c1cc2c(ccn2C)n1CC(=O)N1CCC(Cc2ccccc2)CC1 | inconclusive [cytotoxic, single point] | 
32 | O=C(c1ccc(Oc2ccc([N+](=O)[O-])cc2)cc1)N1CCCCCC1 | inconclusive [cytotoxic, single point] | 
33 | O=C(CN1CC(c2ccccc2)CC1=O)N/N=C/c1cc(Br)ccc1O (stereo unspecified) | inconclusive [cytotoxic, partial curve] | 
34 | O=C(NC(=S)N1CCN(c2nc(-c3ccccc3)cs2)CC1)c1cncc(Br)c1 | inactive | 
35 | CCOc1ccccc1CNCc1ccc(F)cc1 | inactive | 
36 | COc1ccc(-c2csc(NC(C)c3nc4cc(Cl)c(N5CCCCC5)cc4n3CCOCCO)n2)cc1 (stereo unspecified) | inconclusive [cytotoxic, single point] | 
37 | O=C(c1ccco1)N1CCN(C(=S)NCc2ccc(F)cc2)CC1 | inactive | 
38 | CC(C)(C)c1ccc(COC(=O)CNC(=O)CNC(=O)Cc2ccccc2)cc1 | inconclusive [rising, partial curve] | 
39 | COc1ccc(-n2nnnc2C(CCSC)N2CCN(C/C=C/c3ccccc3)CC2)cc1 (stereo unspecified) | inconclusive [cytotoxic, partial curve] | 
40 | COc1cc(OC)cc(C(=O)Nc2ccccc2C(=O)NC2CC2)c1 | inconclusive [cytotoxic, single point] | 
41 | Cc1cc(S(=O)(=O)N2CCN(CC(=O)N(C)Cc3ccccc3)CC2)ccc1Br | inactive | 
42 | O=C(COC(=O)COc1cc(Cl)c(Cl)cc1Cl)NC1CC1 | inactive | 
43 | N#Cc1ccc(Oc2cc(C(F)(F)F)nc(-c3ccccn3)n2)cc1 |  | inconclusive: 32.9%
44 | Nc1nc(-c2ccco2)nn1C(=O)c1ccc([N+](=O)[O-])cc1 | inactive | 
45 | NC(c1csc(Nc2ncccn2)n1)c1ccccc1Cl (stereo unspecified) | inconclusive [cytotoxic, single point] | 
46 | Cc1sc2nc(CN(Cc3cccs3)C(=O)NC3CCCCC3)[nH]c(=O)c2c1C | inconclusive [cytotoxic, single point] | 
47 | Cc1cc2nc(-c3ccco3)c(Cc3cccc(F)c3)n2c(C)c1Br | active: 20.6 µM | 
48 | CC1CCN(C(=O)CCNC(=O)Cn2cnc3sc4c(c3c2=O)CCCC4)CC1 | inactive | 

Row | Structure (SMILES) | Potency | activity, negative = toxicity
49 | CCc1nnc(NC(=O)CSc2nc3c(c(=O)n2CC)SC(C)C3)s1 (stereo unspecified) | inactive | 
50 | CC(C)(C)c1nc(NC(=O)Nc2ccccc2)sc1Br | inconclusive [cytotoxic, single point] | 
51 | O=C(CN1C(=O)c2cccc3cccc1c23)NC1CCCCC1 | inactive | 
52 | CC(C)[C@H]1C(=O)Nc2ccccc2N1C(=O)N[C@@H](Cc1ccccc1)C(=O)N[C@@H](Cc1ccccc1)C(=O)O | inconclusive [cytotoxic, single point] | 
53 | C#CCOCCOCCOCCNc1nc(N2CCN(C(=O)Cn3cc(CC(C)O)nn3)CC2)nc(N2CCN(C(=O)[C@H](C)n3cc(CCCN=C(N)N)nn3)CC2)n1 (stereo partly specified) | inactive | 
54 | CCn1nc(C)cc1C(=O)Sc1ccc(Cl)cc1Cl | inconclusive [cytotoxic, single point] | 
55 | COc1cc(C(=O)OCC(=O)N2c3ccccc3NC(=O)C2(C)C)ccc1OCC(C)C | inactive | 
56 | O=C(c1ccco1)N1CCN(c2ncnc3c2[nH]c2ccc(Br)cc23)CC1 | inconclusive [cytotoxic, single point] | 
57 | CCn1c(=O)c(C(=O)CN(C)CC(=O)Nc2cccc(F)c2)c(N)n(Cc2ccccc2)c1=O | inconclusive [cytotoxic, single point] | 
58 | c1ccc(-c2nccc(-c3ccc(-n4cnc5ccccc54)cc3)n2)cc1 | inconclusive [cytotoxic, single point] | 
59 | O=S(=O)(c1ccc(N2CCC(c3ccc(Cl)cc3)=N2)cc1)N(CCO)CCO | inactive | 
60 | Cn1c(=O)[nH]c(=O)c2c1nc(SCC(=O)O)n2Cc1ccccc1 | inactive | 
61 | CC(=O)c1c(C)[nH]c(C(=O)Nc2nc(-c3ccc(-c4ccccc4)cc3)cs2)c1C | inconclusive [cytotoxic, single point] | 
62 | Fc1ccc(-c2n[nH]c(=S)n2-c2ccc3c(c2)OCCO3)cc1 | inactive | 
63 | Nc1nc(Nc2ccc(Cl)cc2)nc(NCc2ccco2)c1[N+](=O)[O-] | active: 18.4 µM | 
64 | CN1CC(c2ccccc2Cl)C2(COc3ccccc3C2=O)C12C(=O)Nc1ccccc12 (stereo unspecified) | inconclusive [cytotoxic, single point] | 
65 | CCCCCCCCOC(=O)c1c(CSC(=N)N)n(C)c2cc(Br)c(OC(C)=O)cc12 | inconclusive [cytotoxic, single point] | 
66 | COc1ccc(C2/C=C\CN(C(=O)C3CCCC3)[C@H](Cc3ccccc3)C(=O)N2Cc2ccc(F)cc2)cc1 (stereo partly specified) | inactive | 
67 | COc1ccc(NCc2cccnc2)cc1 | inactive | 
68 | COc1ccc(-c2nnc3ccc(SCC(=O)N4CCCCCC4)nn23)cc1OC | inactive | 
69 | CC(C)c1nnc(NC(=O)CCS(=O)(=O)c2nc(-c3cccs3)cc(C(F)(F)F)n2)s1 | inconclusive [cytotoxic, single point] | 
70 | COc1ccc(/C=C2\CC/C(=C\c3ccc(OC)c(OC)c3)C2=O)cc1OC | inconclusive [cytotoxic, single point] | 
71 | COC(=O)c1ccccc1NC(=O)c1ccc2c(c1)OCCCO2 | inactive | 
